Experimental data taken from the supplement of paper PMC4894684.
Where a name gives a salt, the structure may show the parent alone. ± gives the standard deviation of the averaged measurements. In all, about 1,000 compounds went through this assay and about 15 (2%) showed an effect of 50% or more. Some of the results follow.

System: HFF
Experiment: uninfected host cell viability relative to vehicle control; higher = less host cell toxicity
Settings: 5 µM; 72 h; oxygen 21 %
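Note: confluent HFF monolayers, run in parallel with the Toxoplasma growth screen as a host toxicity counterscreen.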

Compound	uninfected host cell viability
Brc1c(NC2=NCCN2)ccc2nccnc12	87.1 ± 2.9%
N=C(N)N/N=C/c1c(Cl)cccc1Cl [Guanabenz acetate]	86.3 ± 7%
N[C@H](C(=O)O)[C@H](OCc1ccccc1)C(=O)O (racemic)	98.4 ± 2.4%
OC[C@H]1NC[C@@H](O)[C@@H](O)[C@@H]1O [1-Deoxymannojirimycin hydrochloride]	86.61 ± 0.073%
O=C(O)c1cc(O)c2ccc(Cl)cc2n1 [7-Chlorokynurenic acid]	86.7 ± 1.1%
O=C(O)CCC/C=C\C[C@@H]1CO[C@H](C(F)(F)F)O[C@@H]1c1ccccc1O	93.4 ± 4.4%
Cc1ccc2c(c1)C(=O)C1(O)CCN(c3ccccc3)C1=N2 (racemic) [(±)-Blebbistatin]	90.9 ± 7.7%
O=C1c2ccccc2S(=O)(=O)N1CCCCN1CCN(c2ncccn2)CC1 [Ipsapirone]	87.04 ± 0.35%
CC1=C(CC(=O)O)c2cc(F)ccc2/C1=C\c1ccc([S+](C)[O-])cc1 (stereo not given) [Sulindac]	85.4 ± 5%
Cc1noc(NS(=O)(=O)c2ccc(N)cc2)c1C [Sulfisoxazole]	85.6 ± 1%
O=C1CC2(CCCC2)CC(=O)N1CCNCC1COc2ccccc2O1 (stereo not given)	85.64 ± 0.64%
Cc1ccc(NC2=CC(=O)c3sc(C)nc3C2=O)cc1 [Ryuvidine]	16.8 ± 0.66%
COc1ccc2[nH]c([S+]([O-])Cc3ncc(C)c(OC)c3C)nc2c1 (stereo not given) [Omeprazole]	85.1 ± 2.2%
CC(=O)Nc1ccc(O)cc1 [Acetaminophen]	88.7 ± 5.5%
O=C1N(c2ccccc2)c2ccccc2C1(Cc1ccncc1)Cc1ccncc1 [Linopirdine dihydrochloride]	91.77 ± 0.66%
CNCCC(Oc1ccccc1OC)c1ccccc1 (stereo not given) [Nisoxetine hydrochloride]	101 ± 1.5%
Cn1cnnc1Sc1c([N+](=O)[O-])ncn1C	89.361 ± 0.008%
CCOC(=O)C1=C[C@]2(CC)CCCN3CCc4c(n1c1ccccc41)[C@@H]32 [Vinpocetine]	86.9 ± 1.2%
c1ccc(N2CCN(Cc3nc4ccccc4[nH]3)CC2)nc1 [ABT 724 trihydrochloride]	91.1 ± 2.7%
COC(=O)c1c(-c2cc(OC)c(OC)c(OC)c2)c2ccnc(OCc3ncccn3)c2c(=O)n1Cc1ccnc(C)c1 [T 0156 hydrochloride]	97.36 ± 0.83%
CN1[C@@H](CC(=O)c2ccccc2)CCC[C@H]1C[C@H](O)c1ccccc1 [Lobeline hydrochloride]	84.1 ± 3.4%
CN1CC2c3ccccc3Oc3ccc(Cl)cc3C2C1 (stereo not given) [Asenapine maleate]	91.6 ± 5.8%
CCOC(=O)c1ncc2[nH]c3cccc(OC(C)C)c3c2c1C	90.16 ± 0.27%

Compound	uninfected host cell viability
CS(=O)(=O)CCNCc1nc(-c2ccc3ncnc(Nc4ccc(OCc5cccc(F)c5)c(Cl)c4)c3c2)cs1	82.9 ± 2.2%
COc1ccc(Nc2ncnc3ccc(OC)cc23)cc1 [MPMQ hydrochloride]	79.41 ± 0.13%
C[C@@H](CN1CC(=O)NC(=O)C1)N1CC(=O)NC(=O)C1 [Dexrazoxane hydrochloride]	84.2 ± 4%
CNCCC(Oc1ccc(C(F)(F)F)cc1)c1ccccc1 (stereo not given) [Fluoxetine hydrochloride]	80.7 ± 2.8%
C#CCN1C(C)=C(C(=O)OC)C(c2cccc([N+](=O)[O-])c2)C(C(=O)OCC)=C1C (stereo not given)	93.8 ± 1.5%
OCc1cc(C(O)CNCCCCCCOCCCCc2ccccc2)ccc1O (stereo not given) [Salmeterol]	103 ± 14%
Cc1c(C(=O)NN2CCOCC2)nn(-c2ccc(Cl)cc2Cl)c1-c1ccc(I)cc1	90.8 ± 2.4%
CC(C)Oc1ccc2c(=O)c3cc(C(=O)O)ccc3oc2c1	96.9 ± 2.2%
CCC1=C(C)CN(C(=O)NCCc2ccc(S(=O)(=O)NC(=O)N[C@H]3CC[C@H](C)CC3)cc2)C1=O [Glimepiride]	89.39 ± 0.47%
Oc1ccc(-c2nc3cc(O)cc(Br)c3o2)cc1	88.8 ± 1.9%
O=C1CCc2cc(OCCCCc3nnnn3C3CCCCC3)ccc2N1 [Cilostazol]	98 ± 3.6%
Cc1c[nH]c(=O)n(CCCN2CCN(c3ccccc3OCC(F)(F)F)CC2)c1=O	85.64 ± 0.49%
CC(C)NCC(O)COc1cccc2ccccc12 (stereo not given) [Propranolol hydrochloride]	85.9 ± 1.4%
COC(=O)[C@@H]1[C@H]2C[C@H]3c4[nH]c5ccccc5c4CCN3C[C@@H]2CC[C@@H]1O [Yohimbine hydrochloride]	89.1 ± 1.2%
Oc1c2ccccc2c2c3c(cccc13)N=N2	69.9 ± 1%
CC1(C)NC(=O)N(c2ccc([N+](=O)[O-])c(C(F)(F)F)c2)C1=O [Nilutamide]	85 ± 4%
N[C@@H](CC(=O)Nc1ccc(Oc2cc(F)c(F)cc2Br)cc1)C(=O)O	95 ± 0.96%
CC1(C)Oc2ccc(C#N)cc2[C@H](N2CCCC2=O)[C@H]1O [Cromakalim]	87.3 ± 4%
COc1cccc(OC)c1OCCNCC1COc2ccccc2O1 (stereo not given) [WB 4101 hydrochloride]	86.45 ± 0.5%
N=C(N)NC(=O)c1nc(Cl)c(N)nc1N [Amiloride hydrochloride]	99.21 ± 0.71%
CC(Cc1ccccc1)(NC(=O)CN)c1ccccc1 (stereo not given) [Remacemide hydrochloride]	85.5 ± 1.2%
O=[N+]([O-])c1cccc2c(Br)[nH]nc12 [3-Bromo-7-nitroindazole]	83.8 ± 3.7%
